The record followed here is PubChem BioAssay AID1745853 (National Center for Advancing Translational Sciences (NCATS), 2022).

What all share (assay): Primary Screen for Target Class Profiling of Small Molecule Inhibitors of Methyltransferases
The target in assay [1] is Glycine N-methyltransferase (Homo sapiens) (UniProt Q14749). As to conditions: purified enzyme, MTase-Glo SAH luminescence; measured here: GNMT inhibition; at 40 µM; stronger effect = lower value. The procedure, abridged:
(§1)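 Each enzyme was reacted with SAM and its substrate, with compounds tested once at 40 uM; SAH formed was read by MTase-Glo luminescence.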

Assay [2] concerns the target Guanidinoacetate N-methyltransferase (Homo sapiens) (UniProt Q14353). The settings on record: purified enzyme, MTase-Glo SAH luminescence; measured here: GAMT inhibition; at 40 µM; stronger effect = lower value. The procedure, abridged: as §1
Assay [3] concerns the target Histamine N-methyltransferase (Homo sapiens) (UniProt P50135). As to conditions: purified enzyme, MTase-Glo SAH luminescence; measured here: HNMT inhibition; at 40 µM; stronger effect = lower value. The procedure, abridged:
as §1

Assay [4] has as its target Nicotinamide N-methyltransferase (Homo sapiens) (UniProt P40261). As to conditions: purified enzyme, MTase-Glo SAH luminescence; measured here: NNMT inhibition; at 40 µM; stronger effect = lower value. The procedure, abridged:
as §1

The target in assay [5] is Phenylethanolamine N-methyltransferase (Homo sapiens) (UniProt P11086). The settings on record: purified enzyme, MTase-Glo SAH luminescence; measured here: PNMT inhibition; at 40 µM; stronger effect = lower value. The procedure, abridged: as §1

The other results are listed elsewhere or left out. These are further read-outs of the screen, such as a control signal, another cell line or another target. No call is given for them.
% is scaled to controls: 0 for no effect and ±100 for the full control effect.

Consider `CC(C)(C)c1cc2n(n1)CC(C)(C(=O)NC1CCCCCC1)N(Cc1ccc3c(c1)OCO3)C2=O` (stereo not drawn), for which the activity change, negative = inhibition is 2.25% in assay [1]; 2.68% in assay [2]; 6.76% in assay [3]; -5.16% in assay [4]; -0.405% in assay [5].
As to `CN1C(=O)c2cc(C(=O)NCc3ccc(F)cc3)nn2CC1(C)C(=O)NC1CCCC1` (stereo not drawn), the activity change, negative = inhibition in assay [1] is 0.314%; in assay [2], 2.71%; in assay [3] it was -4.06%; in assay [4], 2.75%; in assay [5], -1.87%.
Take `COC1CCN(CC2CCCCCN2)CC1` (stereo not drawn): the activity change, negative = inhibition is -4.65% in assay [1]; -2.38% in assay [2]; 0.965% in assay [3]; -2.51% in assay [4]; -15.1% in assay [5].
On the same counts, the results for `Cc1cccc(CC(=O)N2CCCCC2c2nc(C3CC3)n[nH]2)c1` (stereo not drawn) are -4.05%, -11.5%, -5.92%, -7.55% and -8.32%.
Regarding `OC1(c2ccc(Cl)c(C(F)(F)F)c2)CCN(CCCC(c2ccc(F)cc2)c2ccc(F)cc2)CC1`, the activity change, negative = inhibition in assay [1] is 3.81%; in assay [2] it was -6%; in assay [3] it was 1.26%; in assay [4] it was -23.2%; in assay [5] it was -10.6%.
Consider `CN(C)c1ccc(Nc2c3ccc(NC(=O)CCN4CCCC4)cc3nc3cc(NC(=O)CCN4CCCC4)ccc23)cc1`, for which the activity change, negative = inhibition was -1.16% in assay [2], -52.3% in assay [4] and -33.3% in assay [5].
`COC(=O)Cn1c(=O)oc2cc(S(=O)(=O)NCCc3cccs3)ccc21`: the activity change, negative = inhibition is -2.51% in assay [1]; 0% in assay [2]; 2.8% in assay [3]; -2.35% in assay [4]; -0.118% in assay [5].
Take `COc1ncccc1-c1nccn2c(C3CN(Cc4ccccc4O)C3)ncc12`: the activity change, negative = inhibition in assay [1] is -6.98%; in assay [2], -6.74%; in assay [3], -86.6%; in assay [4] it was -17.6%; in assay [5], -9.23%.
Taken in the same sequence, the figures for `O=c1[nH]ccc2nc(-c3ccc(CN4CCC(c5nc(-c6ccccn6)n[nH]5)CC4)cc3)c(-c3ccccc3)cc12` were -48.4%, -23.1%, -14.2%, -71.4% and -39.1%.
In the case of `CCCN1C(=O)c2cc(C(=O)N3CCN(c4ccccc4)CC3)nn2CC1(C)C(=O)NC1CCCC1` (stereo not drawn), the activity change, negative = inhibition was -2.46% in assay [1]; 2.03% in assay [2]; 3.95% in assay [3]; -2.78% in assay [4]; -2.14% in assay [5].
Regarding `Cc1cccc(NC(=O)Cn2nc3n(C(C)C)c(=O)c4ccc(C(=O)NCC(C)C)cc4n3c2=O)c1`, the activity change, negative = inhibition in assay [1] was -0.089%; in assay [2], 3.73%; in assay [3], 3.59%; in assay [4], 2.32%; in assay [5] it was 4.41%.
In the case of `CCC(C)NC(=O)c1ccc2c(=O)n(C(C)C)c3nn(CC(=O)Nc4cccc(Cl)c4)c(=O)n3c2c1` (stereo not drawn), the activity change, negative = inhibition in assay [1] was 4.11%; in assay [2], 4.13%; in assay [3], 4.19%; in assay [4] it was -0.36%; in assay [5] it was 2.18%.
Turning to `Cn1c(=O)c2ccc(C(=O)NC3CCCC3)cc2n2c(=O)n(CC(=O)c3ccc(F)cc3)nc12`, the activity change, negative = inhibition in assay [1] was 2.21%; in assay [2], 4.79%; in assay [3] it was -0.813%; in assay [4], -3.58%; in assay [5], -0.325%.
Consider `CCOC(=O)C1CCC(CNC(=O)N2CCn3cccc3C2C(C)C)CC1` (stereo not drawn), for which the activity change, negative = inhibition in assay [1] turned out to be 6.77%; in assay [2] it was 1.38%; in assay [3], 3.19%; in assay [4] it was 1.25%; in assay [5] it was 5.5%.
For `O=C(c1cc(F)ccc1F)N1CCCCC1c1nc(-c2cnccn2)n[nH]1` (stereo not drawn), the activity change, negative = inhibition is -1.5% in assay [1]; -0.998% in assay [2]; 0.205% in assay [3]; -3.26% in assay [4]; 0.767% in assay [5].
On to `CCOc1ccc(CN2C(=O)c3c(C(=O)OC)ncn3CC2(C)C(=O)NC2CCCC2)cc1OC` (stereo not drawn), for which the activity change, negative = inhibition in assay [1] worked out at 1.94%; in assay [2] it was 3.22%; in assay [3], 6.39%; in assay [4], 1.55%; in assay [5] it was 1.59%.
As to `Cc1ccc(Cn2c(=O)c3ccccc3n3c(=O)n(CC(=O)Nc4ccccc4F)nc23)cc1`, the activity change, negative = inhibition in assay [1] was -0.767%; in assay [2], 2.62%; in assay [3] it was 2.34%; in assay [4] it was 0.949%; in assay [5] it was 1.17%.
`Cc1ccc(C(=O)Cn2nc3n(Cc4ccc(F)cc4)c(=O)c4ccccc4n3c2=O)cc1`: the activity change, negative = inhibition worked out at 7% in assay [1]; 1.32% in assay [2]; 11.4% in assay [3]; 10.4% in assay [4]; 8.92% in assay [5].
Regarding `CCCn1c(=O)c2ccc(C(=O)NC(C)CC)cc2n2c(=O)n(Cc3ccccc3C)nc12` (stereo not drawn), the activity change, negative = inhibition in assay [1] is 1.35%; in assay [2], 0%; in assay [3] it was 6.52%; in assay [4] it was -0.223%; in assay [5], 3.35%.
On the same counts, the results for `CC1CCC(NC(=O)Cn2ccc3cc(S(=O)(=O)N4CCC(C)CC4)ccc32)CC1` (stereo not drawn) are -0.903%, 3.54%, -1.26%, -1.07% and -3.87%.
As for `Cc1ccc(C(=O)N(Cc2ccccc2)S(=O)(=O)c2ccc3c(c2)n(C)c(=O)n3C)cc1`, the activity change, negative = inhibition in assay [1] was -1.73%; in assay [2], 0%; in assay [3] it was -9.01%; in assay [4], -3.35%; in assay [5], -1.33%.
For `CC(=O)N1C[C@@H](NC(=O)Nc2ccc(F)cc2F)C[C@H]1C(=O)N[C@H](Cc1c[nH]c2ccccc12)C(N)=O`, the activity change, negative = inhibition in assay [1] is -0.575%; in assay [2], 1.14%; in assay [3] it was -0.721%; in assay [4] it was 1.17%; in assay [5], 1.86%.
Take `COc1cccc(CN2C(=O)c3cc4occc4n3CC2(C)C(=O)NC2CCC(C)CC2)c1` (stereo not drawn): the activity change, negative = inhibition in assay [1] is -3.49%; in assay [2], 0%; in assay [3], 2.36%; in assay [4], -22.7%; in assay [5], -0.936%.
Turning to `CCOC(=O)c1cc2n(n1)CC(C)(C(=O)NC1CCCCCC1)N(c1ccc3c(c1)OCO3)C2=O` (stereo not drawn), the activity change, negative = inhibition amounted to 4.05% in assay [1]; 0% in assay [2]; 4.6% in assay [3]; 2.58% in assay [4]; 4.54% in assay [5].
For the compound `CC(=O)Nc1c2n(c3ccc(F)cc13)CC(C)(C(=O)NC1CCCC1)N(Cc1cccs1)C2=O` (stereo not drawn), the activity change, negative = inhibition in assay [1] was -12%; in assay [2], 1.32%; in assay [3] it was -1.25%; in assay [4], -3.35%; in assay [5], -3.07%.
On to `O=S(=O)(NCCc1nc2ccccc2n1S(=O)(=O)c1ccccc1)c1ccccc1`, for which the activity change, negative = inhibition in assay [1] turned out to be 1.42%; in assay [2], 10.6%; in assay [3], 3.42%; in assay [4], 11.1%; in assay [5] it was 1.21%.
As for `O=C(O)c1cc(O[C@@H]2O[C@H](CO[C@@H]3OC[C@@H](O)[C@H](O)[C@H]3O)[C@@H](O)[C@H](O)[C@H]2O)c2ccccc2c1O`, the activity change, negative = inhibition in assay [1] is -15.8%; in assay [2], -3.4%; in assay [3], 5.28%; in assay [4], -14%; in assay [5] it was -41.1%.
As for `CCc1ccc(C2c3cccn3-c3sc4c(c3CN2C(=O)NCCCOC)CCCC4)cc1` (stereo not drawn), the activity change, negative = inhibition in assay [1] was -2.99%; in assay [2], 0%; in assay [3], 7.2%; in assay [4] it was -10.2%; in assay [5] it was 3.83%.
For `COC(=O)[C@@H]1Cc2ncn(Cc3ccc(Cl)cc3)c2CN1CCCc1ccccc1`, the activity change, negative = inhibition was -16.8% in assay [1]; -6.43% in assay [2]; -33.1% in assay [3]; -61.6% in assay [4]; -17.9% in assay [5].
On to `C[S+](=O)([O-])N1C2CCC1CN(c1ccc(C(F)(F)F)cc1)C2`, for which the activity change, negative = inhibition was -3.62% in assay [1]; -0.796% in assay [2]; 0.2% in assay [3]; -5.6% in assay [4]; 7.23% in assay [5].
Turning to `CC1(C(=O)NC2CCCC2)Cn2c(ccc2-c2ccco2)C(=O)N1Cc1cccc(Br)c1` (stereo not drawn), the activity change, negative = inhibition was -13.4% in assay [1]; -4.18% in assay [2]; -6.1% in assay [3]; -17.7% in assay [4]; -7.97% in assay [5].
As for `Cn1nc(N2CCC(NC(=O)c3ncccn3)CC2)ccc1=O`, the activity change, negative = inhibition was -2.62% in assay [1]; 1.76% in assay [2]; 0.465% in assay [3]; -2.42% in assay [4]; -1.8% in assay [5].
As to `CN1C[C@H](C(=O)Nc2ccccc2)C[C@H]1c1cccc(C(F)(F)F)c1`, the activity change, negative = inhibition in assay [1] is -5.37%; in assay [2], -3.23%; in assay [3], 0.949%; in assay [4] it was -11.3%; in assay [5], -30%.
Turning to `CCOc1ccc2c(-c3ccccc3)cc(=O)oc2c1`, the activity change, negative = inhibition was -7.19% in assay [1]; 0% in assay [2]; 5.37% in assay [3]; -20.3% in assay [4]; -13.4% in assay [5].
As for `COc1ccc(C(C)NC(=O)c2ccc(Cn3ccn4nc5c(c4c3=O)CCCC5)cc2)cc1OC` (stereo not drawn), the activity change, negative = inhibition in assay [1] is -19.7%; in assay [2], -3.12%; in assay [3], -0.886%; in assay [4], -30.9%; in assay [5], 0.732%.
On the same counts, the results for `CCOc1ccccc1CN1C(=O)c2cc3occc3n2CC1(C)C(=O)NC1CCC(C)CC1` (stereo not drawn) are 3.19%, 1.43%, 6.1%, 5.78% and 4.29%.
Turning to `CC(=O)N1CCC2(C1)N=C(c1ccccn1)C(=O)N2` (stereo not drawn), the activity change, negative = inhibition in assay [1] was -5.89%; in assay [2], -6.29%; in assay [3], -1.37%; in assay [4], -9.11%; in assay [5] it was -10%.
